# PubChem BioAssay AID504845 (National Center for Advancing Translational Sciences (NCATS), 2011)
# Where “and” joins values, the source holds several entries; their conditions need not be identical. Equal values may be shown once. The campaign covered roughly 390,000 compounds. About 150 (0.038%) were called active. The inconclusive results got no clear call from the source; some entries with a clear call stand among them for comparison. Calls follow the shape of the dose curve; as a rule, active = well fitted inhibition curve with a large enough effect; inconclusive = small, poorly fitted or top-dose-only effect; inactive = no such curve, though single readings can be large or run the other way. A potency beside an inconclusive call is a rough fit, not a confirmed value.
# Molecular target: Regulator of G-protein signaling 4 (Homo sapiens) (UniProt P49798)
# Experiment: Inhibitors of Regulator of G Protein Signaling (RGS) 4: qHTS; also: nearly all actives have a fitted effect of over 75% in size
# Conditions: Transcreener GDP fluorescence polarization, RGS4-accelerated GTP hydrolysis; series mostly up to 114 µM; activity change, negative = inhibition: at the top concentration
# In short: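 MLSMR compounds (23 nl, pin-transferred) preincubated 10 min at room temperature with a 500nM (2x) first reagent, then RGS4 at 900nM (2x) plus Transcreener GDP mix added; fluorescence polarization (620/688 nm) read before and after 90 min at 30 °C.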
# % is scaled to controls: 0 for no effect and ±100 for the full control effect; potency is read from the fitted curve at half-maximal effect; tags tell the direction and shape of the fitted curve.
# Sequence of UniProt P49798 (P49798 whole entry, looked up): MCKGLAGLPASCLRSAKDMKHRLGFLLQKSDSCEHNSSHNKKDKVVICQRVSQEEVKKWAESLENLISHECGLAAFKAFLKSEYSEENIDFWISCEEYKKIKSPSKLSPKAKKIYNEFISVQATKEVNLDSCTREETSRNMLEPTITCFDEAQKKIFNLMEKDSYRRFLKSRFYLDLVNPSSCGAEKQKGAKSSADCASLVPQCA
SMILES,Potency,"activity change, negative = inhibition"
Cc1cc(C)cc(C(=O)NC2C(=O)N3C(C(=O)O)=C(CSc4nnc(C)s4)CSC23)c1 (configuration not stated),"inconclusive: 89.1 µM [inhibitor, partial curve, poor fit]",
O=C(CN(c1ccc2c(c1)OCCO2)S(=O)(=O)c1ccccc1)NCc1ccc(Cl)cc1,,inactive: -10.7%
C(=N\N(Cc1ccccc1)c1ccccc1)/c1ccco1,"inconclusive: 79.4 µM [inhibitor, single point]",
COc1ccc(NC(=O)C2CCCN(S(=O)(=O)c3cccc4cccnc34)C2)cc1 (configuration not stated),"inconclusive: 70.8 µM [inhibitor, partial curve, poor fit]",
CCOC(=O)COc1ccccc1/C=C\[N+](=O)[O-],"inconclusive: 44.7 µM [inhibitor, partial curve, poor fit]",
Cc1ccc(S(=O)(=O)c2nc(-c3ccccc3)oc2N2CCCC2)cc1,"inconclusive: 100 µM [inhibitor, single point]",
CCN(CC(=O)Nc1cc(S(=O)(=O)N2CCOCC2)ccc1Cl)Cc1ccccc1,,inactive: 8.51%
CCc1ccccc1Nc1nn2c(=O)c3ccc(C(=O)NCc4ccccc4OC)cc3nc2s1,"inconclusive: 50.1 µM [inhibitor, partial curve, poor fit]",
c1ccc(CCc2nn3c(Cn4cnc5ccccc54)nnc3s2)cc1,"inconclusive: 44.7 µM [inhibitor, partial curve, poor fit]",
Cc1ccc(C2=NN(C(=O)c3ccccc3F)C(c3ccccc3F)C2)cc1 (configuration not stated),"inconclusive: 39.8 µM [inhibitor, partial curve, poor fit]",
CC(C)C(c1nnnn1C1CCCC1)N(C)C1CCCCC1 (configuration not stated),,inactive: -3.77%
CN1C(=O)N(C)C(NC(=O)Nc2ccccc2)C1NC(=O)Nc1ccccc1 (configuration not stated),"inconclusive: 89.1 µM [inhibitor, single point]",
COc1ccc(N2CCN(c3csc4ccc(Cl)cc4c3=O)CC2)cc1,"inconclusive: 70.8 µM [inhibitor, partial curve, poor fit]",
CCC(C)c1ccccc1N1CC(C(=O)Nc2cc(S(=O)(=O)N3CCOCC3)ccc2OC)CC1=O (configuration not stated),,inactive: -26.3%
Cc1ccc(NC(=O)c2cc(N3C(=O)C=CC3=O)ccc2Cl)cc1C,"inconclusive: 28.2 µM [inhibitor, full curve, poor fit]",
CC1CCc2c(sc(NC(=O)CCC(=O)O)c2C(=O)NC2CC2)C1 (configuration not stated),"inconclusive: 89.1 µM [inhibitor, partial curve, poor fit]",
CCCC(=O)N1CCN(c2ccc(NC(=O)c3cccs3)cc2Cl)CC1,,inactive: 28.5%
N#CCCC1CCCC=C1N(Cc1ccccc1)C(=O)C(Cl)Cl (configuration not stated),"inconclusive: 89.1 µM [inhibitor, single point]",
O=C(CSc1cccc[n+]1[O-])Nc1ccccc1Oc1ccccc1,"inconclusive: 56.2 µM [inhibitor, partial curve, poor fit]",
O=Cc1ccc(N2CCCCCC2)cc1,"inconclusive: 89.1 µM [inhibitor, single point]",
Cc1nn(-c2ccccc2)c2c1C(c1cccs1)C(C#N)=C(N)O2 (configuration not stated),"inconclusive: 89.1 µM [inhibitor, single point]",

SMILES,Potency,"activity change, negative = inhibition"
O=[N+]([O-])c1ccc(SCCc2ccncc2)cc1,"inconclusive: 17.8 µM [inhibitor, full curve, poor fit] and inconclusive: 44.7 µM [inhibitor, partial curve, poor fit]",
Fc1ccc(Nc2nc(-c3ccncc3)nc3ccccc23)cc1F,"inconclusive: 44.7 µM [inhibitor, partial curve, poor fit]",
COC(=O)CSc1nc2nc(C)cc(C)n2n1,"inconclusive: 79.4 µM [inhibitor, partial curve, poor fit]",
CCOC(=O)c1c(C(=O)OCC)c(C)n(N2C(=O)CSC2=S)c1C,"inconclusive: 50.1 µM [inhibitor, partial curve, poor fit]",
CCN1CCN(C(=O)c2cnn(-c3cccc(Cl)c3)c2C2CCN(C(=O)OC(C)(C)C)CC2)CC1,,inactive: -10.3%
COc1ccc(C2NC(=O)C(C#N)=C(S)N2c2cccc(C)c2)cc1OC (configuration not stated),"inconclusive: 35.5 µM [inhibitor, full curve, poor fit]",
COc1cc(CNc2ccc(N3CCCC3)cc2)ccc1OCc1ccccc1F,"inconclusive: 89.1 µM [inhibitor, partial curve, poor fit]",
CCn1c(CN2CCN(C(=O)c3ccco3)CC2)nc2c1c(=O)n(C)c(=O)n2C,"inconclusive: 89.1 µM [inhibitor, single point]",
CSC1=NS(=O)(=O)c2c(C)nn(C)c2S1,"inconclusive: 20 µM [inhibitor, full curve, poor fit]",
O=c1cc(-c2ccccc2Cl)oc2c(NS(=O)(=O)c3cc(Cl)cc(Cl)c3O)ccc(O)c12,"inconclusive: 79.4 µM [inhibitor, single point]",
O=C(Nc1ccccc1Sc1ccccc1)c1cnn2c1NC(=C1CC1)C=C2C(F)F,,inactive: 0.749%
N#CC1=C(c2ccccc2)/C(=C/c2ccccc2)OC1=O,"inconclusive: 70.8 µM [inhibitor, partial curve, poor fit]",
COCCN(C(=O)COC(=O)CC(C)c1ccccc1)c1c(N)n(Cc2ccccc2)c(=O)[nH]c1=O (configuration not stated),,inactive: -7.29%
CCCn1nnnc1NCc1c(F)cccc1Cl,"inconclusive: 39.8 µM [inhibitor, partial curve, poor fit]",
CCc1nc2c(sc3nc4c(cc32)COC(C)(C)C4)c(=O)n1CCN(CC)CC,,inactive: -1.97%
Cc1ccc(-c2csc3ncn(-n4c(C)ccc4C)c(=O)c23)o1,"inconclusive: 50.1 µM [inhibitor, partial curve, poor fit]",
N#CC1(Nc2ccc(-c3ccc(Cl)cc3)cc2)CCCC1,"inconclusive: 89.1 µM [inhibitor, single point]",
CCNc1nc(NCC)n2c(SCC(=O)Nc3ccccc3F)nnc2n1,"inconclusive: 35.5 µM [inhibitor, full curve, poor fit]",
COc1cccc(N2CCN(C(=S)Nc3ccc(F)cc3)CC2)c1,,inactive: 5.23%
COc1ccc(O)c(C(c2c(C)[nH][nH]c2=O)c2c(C)[nH][nH]c2=O)c1,"inconclusive: 50.1 µM [inhibitor, partial curve, poor fit]",
COC(=O)c1cn(C(=O)c2cc(C)cc(C)c2)c2ccccc12,"inconclusive: 31.6 µM [inhibitor, full curve, poor fit]",

SMILES,Potency,"activity change, negative = inhibition"
Cc1cccc(NC(=S)Nc2cccc3ccccc23)c1,"inconclusive: 100 µM [inhibitor, single point]",
COc1cc(C(=O)NCC(=O)N/N=C/c2cccc(OC(=O)c3ccco3)c2)cc(OC)c1OC,"inconclusive: 89.1 µM [inhibitor, single point]",
O=C(O)CCSCc1ccccc1F,"inconclusive: 89.1 µM [inhibitor, single point]",
C=C1C(=O)O[C@@H]2[C@H]3O[C@]3(C)CCC=C(C)CC[C@@H]12,"inconclusive: 37.7 µM [inhibitor, single point]",
CCOC(=O)c1c(NC(=O)c2ccc(Br)cc2)sc2c1CCCC2,"inconclusive: 50.1 µM [inhibitor, partial curve, poor fit]",
O=C(O)c1cccc(Nc2ncnc3ccc(Br)cc23)c1,inactive,
CCOc1ccccc1-n1nnc(-c2nc(-c3ccccc3C)no2)c1C,,inactive: -13.5%
CC(C)C(NC(=O)c1ccccc1F)C(=O)NCc1ccccc1 (configuration not stated),"inconclusive: 70.8 µM [inhibitor, partial curve, poor fit]",
COc1cccc(CN2CCN(Cc3cccc4nonc34)CC2CCO)c1 (configuration not stated),"inconclusive: 50.1 µM [inhibitor, partial curve, poor fit]",
COC(=O)COc1ccc2cccc(-n3cnnn3)c2c1,"inconclusive: 70.8 µM [inhibitor, single point]",
O=C(CCCN1C(=O)/C(=C/c2cccs2)SC1=S)NNC(=O)c1ccncc1,"inconclusive: 44.7 µM [inhibitor, partial curve, poor fit]",
COc1ccc(C(=O)OCn2nnc3ccccc3c2=O)cc1[N+](=O)[O-],"inconclusive: 50.1 µM [inhibitor, partial curve, poor fit]",
O=C1C(Cl)=C(Nc2ccc3cn[nH]c3c2)C(=O)c2ccccc21,"inconclusive: 89.1 µM [inhibitor, single point]",
Cc1ccc(S(=O)(=O)Nc2ccc3c(c2)C(=O)NC3=O)cc1[N+](=O)[O-],"inconclusive: 70.8 µM [inhibitor, single point]",
COc1ccc(-c2ccoc2)cc1[C@H]1[C@H]2C=CC[C@@H](C)[C@@H]2C(=O)N1Cc1ccccc1,"inconclusive: 79.4 µM [inhibitor, single point]",
O=C(Nc1ccccc1)N(Cc1cccs1)c1ccc(F)cc1,,inactive: 11.4%
O=C(Nc1cccc(-c2nc3ccccc3c(=O)o2)c1)c1ccccc1,"inconclusive: 50.1 µM [inhibitor, partial curve, poor fit]",
CCOc1ccc2nc(NC(=S)NCc3ccccc3)sc2c1,"inconclusive: 44.7 µM [inhibitor, partial curve, poor fit]",
CC(SCc1cc(=O)n2c([nH]c3ccccc32)c1C#N)C(=O)O (configuration not stated),"inconclusive: 50.1 µM [inhibitor, partial curve, poor fit]",
CCCOC(=O)c1c(-c2ccc(OC)cc2)oc2ccc(-c3ccc(OC)nc3)cc12,"inconclusive: 44.7 µM [inhibitor, partial curve, poor fit]",
